Reference: paper PMC8602290
No constants are given. Whether binding was seen depends on the method and setting. In cells and extracts the contact can be indirect. Some entries that bind do so weakly or less than the wild type. One block for each substance: values may come before it.

The chains behind the UniProt entries cited, without tags or fusion partners. Where a name states a change or a piece, a line headed by the entry shows the natural chain unless it says otherwise.
UniProt O43791: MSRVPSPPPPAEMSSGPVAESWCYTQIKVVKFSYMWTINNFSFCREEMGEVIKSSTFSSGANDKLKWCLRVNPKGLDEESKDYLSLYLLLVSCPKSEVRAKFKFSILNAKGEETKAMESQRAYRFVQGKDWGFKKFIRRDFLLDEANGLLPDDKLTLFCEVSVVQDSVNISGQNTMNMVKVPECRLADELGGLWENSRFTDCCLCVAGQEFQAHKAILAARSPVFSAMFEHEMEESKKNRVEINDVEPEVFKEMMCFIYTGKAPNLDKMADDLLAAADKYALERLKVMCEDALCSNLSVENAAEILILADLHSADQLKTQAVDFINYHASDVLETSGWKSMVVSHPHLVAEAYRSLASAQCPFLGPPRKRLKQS
UniProt Q13283: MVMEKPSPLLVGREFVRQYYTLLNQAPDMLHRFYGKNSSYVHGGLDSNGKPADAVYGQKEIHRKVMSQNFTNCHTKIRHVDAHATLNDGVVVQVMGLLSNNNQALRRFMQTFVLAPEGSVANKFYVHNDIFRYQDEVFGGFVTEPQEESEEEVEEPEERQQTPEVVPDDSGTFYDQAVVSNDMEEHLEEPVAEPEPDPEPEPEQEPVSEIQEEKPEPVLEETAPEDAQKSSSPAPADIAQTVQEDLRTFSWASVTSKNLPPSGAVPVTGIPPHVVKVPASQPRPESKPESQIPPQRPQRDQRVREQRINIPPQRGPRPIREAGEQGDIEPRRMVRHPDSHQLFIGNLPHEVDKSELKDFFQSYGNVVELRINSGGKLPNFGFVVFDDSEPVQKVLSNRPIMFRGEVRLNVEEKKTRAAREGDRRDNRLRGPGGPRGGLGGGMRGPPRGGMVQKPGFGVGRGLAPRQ

Tests used:
[1] = target: HA-SPOP full length (HEK 293T) (UniProt O43791); test: co-IP; HEK 293T cells transfected with tagged SPOP and G3BP1 constructs; lysis in 50 mM Tris pH 7.5, 120 mM NaCl, 1% NP-40, 5 mM EDTA; IP with HA, MYC or FLAG antibodies overnight at 4 C, Protein G sepharose (Fig. 2c, d)
[2] = target: MATH domain of SPOP (22Rv1, transfected) (UniProt O43791); test: co-IP; whole cell lysates of 22Rv1 cells transfected with G3BP1 domains and the SPOP MATH domain (Fig. 2e)
[3] = target: GTPase Activating Protein (SH3 Domain) Binding Protein 1 (G3BP1), endogenous in 22Rv1 cells (human (endogenous in 22Rv1)) (UniProt Q13283); test: co-IP; 22Rv1 cells transfected with HA-SPOP^WT, HA-SPOP^F133V or HA-SPOP^F102C, 48 h; IP with anti-G3BP1 antibody, immunoblot anti-HA-SPOP or anti-G3BP1
[4] = target: FLAG-G3BP1^(338-466), RRM-RGG domain of G3BP1 (HEK 293T) (UniProt Q13283); test: co-IP; reverse IP with anti-FLAG antibody of the FLAG-G3BP1 constructs co-expressed with HA-SPOP (Supplementary Fig. 2A)
[5] = target: FLAG-G3BP1^(1-138), NTF2 domain of G3BP1 (HEK 293T) (UniProt Q13283); test: as above
[6] = target: GTPase Activating Protein (SH3 Domain) Binding Protein 1 (G3BP1), endogenous in 22Rv1 cells (human (endogenous in 22Rv1)) (UniProt Q13283); test: proximity ligation; endogenous G3BP1 and SPOP (Supplementary Fig. 1C)
[7] = target: GTPase Activating Protein (SH3 Domain) Binding Protein 1 (G3BP1), endogenous in 22Rv1 cells (human (endogenous in 22Rv1)) (UniProt Q13283); test: co-IP; 22Rv1 cell lysates, IP with IgG or anti-G3BP1 antibody, immunoblot with anti-SPOP and anti-G3BP1; endogenous proteins
[8] = target: HA-SPOP (LNCaP-sgG3BP1) (UniProt O43791); test: co-IP; LNCaP-sgG3BP1 cell line (endogenous G3BP1 deleted), FLAG-G3BP1^NTF2 and HA-SPOP (Supplementary Fig. 2B)
[9] = target: Speckle-type POZ protein (SPOP), endogenous in 22Rv1 cells (human (endogenous in 22Rv1)) (UniProt O43791); test: co-IP; 22Rv1 cells transfected with G3BP1 or G3BP1^RRM; NP40 lysates treated without or with 100 U RNase ONE, 1 h, 37 C, then immunoprecipitated
[10] = target: Myc-G3BP1 (HEK 293T) (UniProt Q13283); test: co-IP; HEK 293T cells transfected with tagged SPOP and G3BP1 constructs; lysis in 50 mM Tris pH 7.5, 120 mM NaCl, 1% NP-40, 5 mM EDTA; IP with HA, MYC or FLAG antibodies overnight at 4 C, Protein G sepharose (Fig. 2c, d)

Substance: FLAG-G3BP1^NTF2 (22Rv1) (from UniProt Q13283 1-138) (domain or fragment)
binding [2]: binds

Substance: HA-SPOP^F102C (22Rv1) (from UniProt O43791 1-374)
binding [3]: no binding

Substance: HA-SPOP full length (HEK 293T) (from UniProt O43791 1-374)
binding [4]: binds | binding [5]: binds

Substance: FLAG-G3BP1^(139-338), acidic and PxxP region of G3BP1 (HEK 293T) (from UniProt Q13283 139-338) (domain or fragment)
binding [1]: no binding

Substance: Speckle-type POZ protein (SPOP), endogenous in 22Rv1 cells (from UniProt O43791 1-374)
binding [6]: binds | binding [7]: binds

Substance: FLAG-G3BP1^(222-338), PxxP region of G3BP1 (HEK 293T) (from UniProt Q13283 222-338) (domain or fragment)
binding [1]: no binding

Substance: FLAG-G3BP1^RRM (22Rv1) (from UniProt Q13283 338-466) (domain or fragment)
binding [9]: binds | binding [2]: binds

Results, then the substance that gave them:

binding [1]: binds
Substance: FLAG-G3BP1^(1-138), NTF2 domain of G3BP1 (HEK 293T) (from UniProt Q13283 1-138) (domain or fragment)

binding [8]: binds
Substance: FLAG-G3BP1^NTF2 (LNCaP-sgG3BP1) (from UniProt Q13283 1-138) (domain or fragment)

binding [3]: binds
Substance: HA-SPOP^WT (22Rv1) (from UniProt O43791 1-374)

binding [1]: binds
Substance: FLAG-G3BP1^(338-466), RRM-RGG domain of G3BP1 (HEK 293T) (from UniProt Q13283 338-466) (domain or fragment)

binding [3]: no binding
Substance: HA-SPOP^F133V (22Rv1) (from UniProt O43791 1-374)

binding [10]: binds
Substance: HA-SPOP^MATH, HA-tagged MATH domain of SPOP (HEK 293T) (from UniProt O43791 31-161) (domain or fragment)
